According to PubChem BioAssay (NCATS):
This is one part of the list. The main result of the screen is listed elsewhere. These columns were measured beside it and carry no call. The list favours compounds with an active or inconclusive main result. Words in brackets tell the shape of the fitted curve; partial curves, single points and poor fits give uncertain potencies.

Experiment: qHTS Assay for Lipid Storage Modulators (AID 1519)
Conditions: Drosophila S3 cells, BODIPY lipid droplet/cell ratio, laser cytometry, cells loaded with oleic acid
How it was run: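 Cells seeded at 5,000 per well were treated with compounds over a concentration series and loaded with oleic acid (400 uM, as added). Lipid droplet fluorescence (488 nm excitation, 500-530 nm channel) was read by laser-scanning cytometry and normalized to 20 uM Triacsin C.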

[1] = measured here: cell count channel max response
[2] = measured here: lipid channel max response
[3] = measured here: cell number channel AC50
[4] = measured here: lipid (BODIPY) channel AC50
Tags describe the fitted curve by direction and shape.

S=C=Nc1cccc(C2(N3CCCCC3)CCCCC2)c1
max response [1]: 62.9% | max response [2]: 80.6%

C[C@@H](CO)NC(=O)[C@@H]1C=C2c3cccc4[nH]cc(c34)C[C@H]2N(C)C1
max response [1]: 72.1% | AC50 [3]: 25.1 µM [rising, partial curve, poor fit] | max response [2]: 88.4%

COc1cc(CCN)ccc1O
max response [1]: 54.7% | max response [2]: 55.7%

NCc1cc(=O)[nH]o1
max response [1]: 48.6% | max response [2]: 50.5%

CCN1C[C@]2(COC(=O)c3ccccc3N3C(=O)C[C@H](C)C3=O)CC[C@H](OC)[C@@]34[C@@H]5C[C@H]6[C@H](OC)[C@H]5[C@](O)(C[C@@H]6OC)[C@@](O)([C@@H](OC)[C@@H]23)[C@@H]14
max response [1]: 25% | AC50 [4]: 39.8 µM [rising, single point] | max response [2]: 36.7%

CC[C@@H]1CN2CCc3cc(OC)c(OC)cc3[C@H]2C[C@@H]1C[C@@H]1NCCc2cc(O)c(OC)cc21
max response [1]: -27.1% | max response [2]: -53.7%

COc1cc2c(cc1OC)C(C)NCC2 (configuration not stated)
max response [1]: -17.4% | AC50 [3]: 20 µM [rising, single point] | max response [2]: -22.7%

CCNC(=O)[C@H]1O[C@@H](n2cnc3c(N)ncnc32)[C@H](O)[C@H]1O
max response [1]: 43.9% | max response [2]: 45.7%

CCC1C(=O)OC[C@H]1Cc1cncn1C (some centres not stated)
max response [1]: 20.6% | AC50 [4]: 11.2 µM [rising, partial curve, poor fit] | max response [2]: 40.1%

O=C1NCN(c2ccccc2)C12CCN(C[C@H]1COc3ccccc3O1)CC2
max response [1]: 61.9% | max response [2]: 79.4%

CN(C(=O)Cc1ccc(Cl)c(Cl)c1)[C@@H](CN1CCCC1)c1cccc(OCC(=O)O)c1
max response [1]: 23.7% | max response [2]: 30%

CC1(C)C(C(Cl)Cl)C2(Cl)C(Cl)C(Cl)C1(Cl)C2(Cl)Cl (configuration not stated)
max response [1]: 29.4% | AC50 [4]: 22.4 µM [rising, partial curve, poor fit] | max response [2]: 48.6%

CO[C@H]1CC=C2CCN3CCC4=C(CC(=O)OC4)[C@]23C1
max response [1]: 36.3% | max response [2]: 38.4%

CCCN(CCC)C1CCc2ccc(O)cc2C1 (configuration not stated)
max response [1]: 40.5% | max response [2]: 41%

C#CCN[C@H](C)Cc1ccccc1
max response [1]: 31.5% | max response [2]: 34.5%

N#C/C(=C\c1ccc(O)c(O)c1)C(N)=S
max response [1]: 43% | max response [2]: 58.1%

CC(C)(C)c1o[nH]c(=O)c1CC(N)C(=O)O (configuration not stated)
max response [1]: 31.1% | max response [2]: 27.6%

O=C(Oc1ccccc1)N1CCC[C@@]2(CCN(Cc3cc(C(F)(F)F)cc(C(F)(F)F)c3)C2)C1
max response [1]: 19.1% | AC50 [4]: 0.141 µM [rising, full curve, poor fit] | max response [2]: 32.6%

C/C=C1/C[C@@H](C)[C@](O)(CO)C(=O)OCC2=CCN3CC[C@@H](OC1=O)C23 (some centres not stated)
max response [1]: 22.9% | AC50 [4]: 35.5 µM [rising, single point] | max response [2]: 35%

O=C1CS[C@@H](c2ccccc2Cl)c2cc(Cl)ccc2N1
max response [1]: 24.5% | max response [2]: 39.8%

C[N+]1(C)CCOC(O)(c2ccc(-c3ccc(C4(O)C[N+](C)(C)CCO4)cc3)cc2)C1 (configuration not stated)
max response [1]: 43.4% | AC50 [3]: 35.5 µM [rising, single point] | max response [2]: 43.6%

CC[C@]1(O)CC(O[C@@H]2CC(N(C)C)C(O)C(C)O2)c2c(cc3c(c2O)C(=O)c2c(O)ccc(O)c2C3=O)C1C(=O)OC (some centres not stated)
max response [1]: 5.92% | AC50 [4]: 14.1 µM [falling, partial curve] | max response [2]: -45.7%

CC1CC(Cl)CCC1C(=O)OC(C)(C)C (configuration not stated)
max response [1]: 25.2% | AC50 [4]: 25.1 µM [rising, partial curve, poor fit] | max response [2]: 31.3%

CN(C)C1C(=O)C(C(N)=O)=C(O)[C@@]2(O)C(=O)C3=C(O)c4c(O)cccc4[C@@](C)(O)C3[C@H](O)C12 (some centres not stated)
max response [1]: 5.61% | AC50 [4]: 25.1 µM [rising, single point] | max response [2]: 18.5%

O=C(Oc1ccccc1)N1CCC2(CC1)CN(Cc1ccncc1)C2
max response [1]: 27.4% | AC50 [4]: 0.02 µM [rising, full curve, poor fit] | max response [2]: 31.1%

COc1ccc(CC2NC[C@H](O)[C@H]2OC(C)=O)cc1 (some centres not stated)
max response [1]: 1.85% | AC50 [4]: 3.16 µM [falling, full curve] | max response [2]: -61.1%

CCC1C2CC3C4N(C)c5ccccc5[C@]45CC(C2C5O)N3C1O (some centres not stated)
max response [1]: 28.9% | AC50 [4]: 28.2 µM [rising, single point] | max response [2]: 44.5%

CCC(C)C(=O)OC1C[C@@]2(C)C(c3ccoc3)OC(=O)CC23OC2(C)OC34C(OC(=O)C(C)C)[C@]3(O)C(OC(=O)C5(C)OC5C)[C@]5(C)CC3(O)[C@](C)(C5CC(=O)OC)C14O2 (some centres not stated)
max response [1]: -1.99% | AC50 [4]: 15.8 µM [falling, single point] | max response [2]: -32.8%

CCCCCCC[n+]1ccc(-c2cc[n+](CCCCCCC)cc2)cc1
max response [1]: -22.8% | AC50 [4]: 44.7 µM [falling, single point] | max response [2]: -49.9%

C=C(C)C1Cc2c(ccc3c(=O)c4c(oc23)COc2cc(OC)c(OC)cc2-4)O1 (configuration not stated)
max response [1]: 22.2% | AC50 [4]: 14.1 µM [rising, partial curve] | max response [2]: 31.9%
